Data: the supplement of paper PMC7335073
Whole data set: some 4,100 sequences, median “relative CpG methylation activity (normalised to average over all NNNCGNNN flanks)” near 0.87, cut for the highest 2% near 2.4. The list shows a part of the results.

Target: DNMT3A catalytic domain (mouse) (UniProt O88508)
Assay: relative CpG methylation activity (normalised to average over all NNNCGNNN flanks) (relative (1 = mean)); higher = more methylation of the central CpG
Conditions: system: in vitro, murine catalytic domain; CpG state: hemimethylated substrate pool; residues: 608-908
In short: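 Pooled dsDNA substrates with a central CpG inside 10 random flanking nucleotides were methylated by murine DNMT3A or DNMT3B catalytic domain with 0.8 mM S-adenosyl-L-methionine in HEPES pH 7.5 buffer for 60 min at 37 °C. The DNA then went through proteinase K, BsaI-HFv2 digestion, hairpin ligation, bisulfite conversion and two-step PCR before Illumina sequencing. Relative methylation activity is the average methylation of each context with three flanking bases per side, divided by the mean over all contexts. Each experiment had two independent repeats.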

Sequence | relative CpG methylation activity
AGTCGCTG | 1.05
CCCCGATC | 1.92
TAACGATA | 0.685
TGCCGACG | 0.68
ATTCGAAG | 0.433
CAGCGTAT | 0.215
GGTCGAAA | 0.512
AATCGGGA | 0.138
GCTCGGCC | 1.3
CTACGTAA | 2.4
AACCGGAG | 0.25
TGGCGGCC | 1
CTACGGAA | 1.68
TAACGTAT | 0.524
TTCCGGAG | 0.682
CGCCGGTC | 0.991
AACCGCAT | 0.826
ACCCGTTC | 1.26
GGTCGGTG | 0.0893
TGGCGTGT | 0.025
CCCCGGAG | 0.407
TTGCGAAC | 1.77
CGTCGTAC | 0.68
TAGCGCCC | 1.24
AGTCGTTT | 0.494

Sequence | relative CpG methylation activity
TATCGTTC | 0.692
CATCGGAG | 0.238
CTCCGTCC | 2.65
GGCCGATT | 0.737
CAACGTGC | 0.55
GTACGACA | 1.91
GTGCGGAA | 0.921
TTACGGTT | 1.67
GACCGGTA | 0.507
GTACGATG | 1.07
TCACGTCG | 2.02
ACGCGTGA | 0.47
TAACGGCA | 0.902
CGGCGATT | 0.328
CCACGTGC | 0.851
CCACGTGG | 0.324
CCTCGCCA | 1.67
AGACGCAC | 1.23
GGGCGCGG | 0.143
AGACGCGT | 0.843
TTCCGTTC | 1.43
GAGCGACT | 0.672
CATCGGAA | 0.388
CCGCGTGT | 0.25
TTTCGAGA | 0.581

Sequence | relative CpG methylation activity
TACCGTCT | 1.4
TCCCGTTC | 1.35
CCTCGTTA | 1.25
CAACGTCC | 1.67
CAGCGTGG | 0.106
CAGCGGGT | 0.205
CAACGATC | 1.07
AGTCGAGA | 0.289
ATCCGGCA | 1.55
TCACGTAG | 1.04
GTACGCGT | 1.75
CGACGGGA | 0.539
TCCCGCTT | 1.84
GATCGCGC | 0.445
GGTCGGCA | 0.489
CCGCGCGC | 0.889
AACCGTGG | 0.153
CCCCGTTT | 0.954
TGTCGACA | 0.462
CGACGCCC | 1.65
AGACGCCA | 1.09
CACCGAGG | 0.366
TCGCGGCC | 1.01
CTGCGCCT | 1.81
GACCGCGA | 0.789

Sequence | relative CpG methylation activity
AAGCGCGG | 0.216
TAGCGTGT | 0.153
GATCGATT | 0.205
GAACGGGC | 0.87
GCTCGCAG | 0.648
GGCCGTAT | 0.28
CCCCGTGT | 0.512
GCGCGCCT | 2.07
CATCGGAT | 0.46
TACCGATT | 0.837
CCGCGAAT | 0.581
CCTCGGAG | 0.294
ATGCGGGG | 1.17
CAGCGACG | 0.442
GTACGTGC | 1.2
AAGCGTAG | 0.143
GTACGCCC | 2.39
TGCCGAGC | 1.38
TAGCGGAC | 0.517
CCCCGCGG | 0.391
GGTCGCTA | 0.625
ACTCGGAT | 0.799
GATCGTCA | 0.592
GCACGAGA | 1
CCGCGATA | 1.07

Sequence | relative CpG methylation activity
AATCGCTC | 0.962
GAGCGAAA | 0.796
TTCCGCCC | 2.77
ACTCGTAT | 0.636
GACCGTGC | 0.468
AACCGATT | 0.836
CAACGCTG | 0.808
CCGCGGCC | 0.986
GTCCGCTA | 1.9
ATCCGGTC | 1.59
CTGCGCAT | 1.47
GGACGGGG | 0.233
CGACGTCA | 0.996
ACACGAAC | 1.79
GCCCGTCG | 1.5
ACTCGTTA | 0.745
AAGCGTTC | 0.597
CTCCGTTG | 0.955
AGCCGTGC | 0.364
CCGCGAAA | 0.844
ATGCGGAA | 0.851
TAGCGAGT | 0.361
GTGCGTCC | 1.93
CGGCGATA | 0.599
GATCGTGT | 0.025

Sequence | relative CpG methylation activity
ACACGCGG | 0.619
GTTCGTCT | 1.3
GATCGGAC | 0.714
CAGCGAAA | 0.433
TTGCGAAG | 0.913
AGACGCGC | 0.92
AGGCGGTA | 0.747
CTTCGGGG | 0.814
AATCGCAA | 0.347
TAACGTCT | 0.904
GTTCGCTC | 2.37
TCACGCGG | 0.58
CCCCGTCT | 1.73
ACGCGAAC | 1.34
TGACGGCT | 0.691
TGCCGCAA | 0.807
CCCCGACA | 1.53
CTTCGTGT | 0.494
GGACGCGC | 1.04
CGCCGATG | 0.72
GTACGGAC | 1.51
AGACGACC | 1.16
AACCGCGC | 1.02
TGGCGATT | 0.23
CCTCGTGT | 0.297

Sequence | relative CpG methylation activity
GACCGCTT | 1.77
GGACGCGT | 0.512
GGTCGTAC | 0.216
GAGCGTGG | 0.025
CTCCGTGG | 0.317
CTGCGGCT | 1.17
GATCGTAA | 0.261
ACACGTGA | 0.98
AAACGAGG | 0.267
CCACGATT | 1.04
AATCGCGG | 0.0311
CATCGTCA | 1.31
CAACGATG | 0.349
GGTCGCCC | 1.2
GTTCGATG | 0.33
CACCGAGC | 1.49
AGACGTGG | 0.278
CCACGCTG | 1.58
ATCCGTGA | 0.909
ATGCGTGG | 0.6
GTACGCTC | 2.72
GATCGCCG | 0.545
TGCCGCTG | 0.973
GTCCGCTC | 2.37
GAGCGGCA | 0.7

Sequence | relative CpG methylation activity
TTGCGTGT | 0.625
GTCCGAGG | 1.65
AAGCGTTA | 0.556
CCTCGTCT | 1.57
CCCCGGAA | 0.846
CCACGCCC | 2.16
AGACGGGA | 0.662
AACCGCTT | 1.45
ATTCGCTG | 0.992
GACCGCGC | 1.18
AAGCGGAC | 0.95
CCACGCTC | 2.5
TCACGACT | 1.17
TCACGCAA | 1.5
GGTCGATC | 0.632
CAACGCAC | 1.23
CGCCGGAT | 0.394
GCACGGTT | 0.984
CTACGCTA | 2.5
CCCCGAAT | 1.07
AAACGACC | 0.698
GTCCGATA | 1.37
TGTCGCAA | 0.848
CCCCGGTA | 0.943
GTTCGCCT | 1.92

Sequence | relative CpG methylation activity
CTCCGTTA | 1.51
AGGCGGGG | 0.025
CTGCGTCG | 1.59
AAGCGCAG | 0.376
TGCCGTTG | 0.17
GAACGATT | 0.613
CATCGAGG | 0.36
TATCGCAC | 0.93
CATCGGGG | 0.133
CTTCGCTG | 1.12
GACCGGAT | 0.523
TTGCGGGC | 1.62
GTGCGTCG | 1.91
TTGCGGGA | 1.03
TCCCGGTG | 0.536
TTCCGATG | 1.46
ACCCGTGC | 0.638
TTTCGCAG | 1.23
ACGCGACG | 0.979
